{"source": "the antibiotic and cytotoxicity screens of Wong et al. (2023)", "note": "Some of the results follow.", "data": [{"test_system": "HSkMC (human skeletal muscle cells)", "experiment": "cytotoxicity call (relative viability < 0.9)", "details": "10 µM", "values": [{"smiles": "CN(Cn1[nH]c(=O)ccc1=O)c1ccccc1", "cytotoxicity call": "inactive"}, {"smiles": "OC[C@H]1O[C@H]2O[C@@H]3[C@@H](O)[C@H](O)[C@H](O[C@@H]4[C@@H](O)[C@H](O)[C@H](O[C@@H]5[C@@H](O)[C@H](O)[C@H](O[C@@H]6[C@@H](O)[C@H](O)[C@H](O[C@@H]7[C@@H](O)[C@H](O)[C@H](O[C@@H]8[C@@H](O)[C@H](O)[C@H](O[C@@H]1[C@@H](O)[C@@H]2O)O[C@@H]8CO)O[C@@H]7CO)O[C@@H]6CO)O[C@@H]5CO)O[C@@H]4CO)O[C@@H]3CO", "cytotoxicity call": "inactive"}, {"smiles": "Cc1ccc(S(=O)(=O)Nc2ccc3c(c2)C(=O)N([C@H](C)CO)C[C@@H](C)[C@H](CN(C)S(=O)(=O)c2ccc(Cl)cc2)OCCCC[C@@H](C)O3)cc1", "cytotoxicity call": "inactive"}, {"smiles": "CC(C)C#Cc1ccc2c(c1)O[C@@H](CN(C)S(=O)(=O)c1cn(C)cn1)[C@@H](C)CN([C@@H](C)CO)S2(=O)=O", "cytotoxicity call": "inactive"}, {"smiles": "Cc1ccc(S(=O)(=O)Nc2ccc3c(c2)CC(=O)N([C@@H](C)CO)C[C@H](C)[C@H](CN(C)S(=O)(=O)c2cn(C)cn2)O3)cc1", "cytotoxicity call": "inactive"}, {"smiles": "CCN(CC)CCNC(=O)c1ccc(NC(C)=O)cc1.Cl", "cytotoxicity call": "inactive"}, {"smiles": "CO[C@@H](C(=O)N(C)C[C@H]1OCc2ccccc2-c2c(n(C)c3ccccc23)C(=O)N([C@@H](C)CO)C[C@H]1C)c1ccccc1", "cytotoxicity call": "inactive"}, {"smiles": "CCOC(=O)Cc1n[nH]c(=O)[nH]c1=O", "cytotoxicity call": "inactive"}, {"smiles": "C[C@@H]1CN([C@H](C)CO)C(=O)c2cccc(NS(=O)(=O)c3ccc(F)cc3)c2O[C@@H]1CN(C)C(=O)Nc1cccc2ccccc12", "cytotoxicity call": "inactive"}]}]}
